Values joined by “and” are separate entries in the source; they are usually repeats but may differ in a detail not shown here. Identical values can stand only once. Out of some 420,000 compounds screened, about 50,000 (12%) were called active. This list was built around the results that the source calls inconclusive (neither active nor inactive); the mix of calls is not that of the screen. Calls come from the whole dose curve; as a rule, active = well fitted inhibition curve with a large enough effect; inconclusive = small, poorly fitted or top-dose-only effect; inactive = flat fitted curve, though single readings scatter. A potency beside an inconclusive call is a rough fit, not a confirmed value.
Assay: qHTS for Inhibitors of human tyrosyl-DNA phosphodiesterase 1 (TDP1): qHTS in cells in presence of CPT; note: nearly all actives have a fitted effect of over 55% in size
Details: chicken DT40 Tdp1-/-;hTDP1 cells + 20 nM CPT, ATP luminescence, 48 h; activity change, negative = growth inhibition: at 46.2 µM (top of the series) unless noted
Method in brief: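 Chicken DT40 Tdp1-/- cells complemented with human TDP1, 400 cells/well, exposed to compounds plus 20 nM camptothecin for at least 48 h at 37 C; viability read as ATP content by CellTiter-Glo luminescence.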
% is set by controls: 0 for no effect and ±100 for the full control effect; potency is the fitted concentration of half-maximal effect; tags give direction and shape of the fitted curve.

Row | SMILES | Potency | activity change, negative = growth inhibition
1 | COC[C@@H]1CCCN1c1ccc2c(c1)O[C@H](COCc1ccccc1)CN([C@@H](C)c1ccccc1)S2(=O)=O | active: 2.59 µM | –
2 | O=C(NNC(=O)c1cc(Cl)nc2ccccc12)c1ccccc1F | – | inactive: 11.5%
3 | COc1ccc(C2CCCN2C(=S)Nc2ccc(C)c(C)c2)cc1OC (stereo unspecified) | – | inactive: 9.39%
4 | N=C(N)c1ccc(OCCCOc2ccc(C(=N)N)cc2Br)c(Br)c1 | active: 4.73 µM | –
5 | O=c1c(-c2ccc(F)cc2)nc2cnc(Oc3ccccc3)nc2n1Cc1cccs1 | inconclusive: 18.4 µM [inhibitor, single point] | –
6 | N#CC1(C#N)CC(C=O)=C(N)C1(C#N)CC(=O)c1ccc(F)cc1 (stereo unspecified) | inconclusive: 13 µM [inhibitor, partial curve] | –
7 | CC(C(=O)O)c1ccc(-c2ccccc2)c(F)c1 (stereo unspecified) | inactive | –
8 | O=C(Nc1ccc(F)cc1)Nc1nnc(SCC(=O)N2CCCCC2)s1 | inconclusive: 14.6 µM [inhibitor, partial curve] | –
9 | COCCn1c(SCC(=O)Nc2ccc3c(c2)OCCO3)nc2ccccc2c1=O | inconclusive: 23.1 µM [inhibitor, single point] | –
10 | COc1cc(N)c(Cl)cc1C(=O)OCCCN1CCCCC1 | inconclusive: 33.5 µM [inhibitor, single point] | –
11 | CCCC1OC2CC3C4CCC5=CC(=O)C=CC5(C)C4C(O)CC3(C)[C@]2(C(=O)CO)O1 (stereo partly specified) | active: 16.4 µM | –
12 | Cn1c(=O)c2c(nc(CN3CCCCC3)n2CCCc2ccccc2)n(C)c1=O | inconclusive: 11.6 µM [inhibitor, partial curve] | –
13 | CCNc1ncc2nc(-c3cc(F)cc(F)c3)c(=O)n(C[C@H]3CCCO3)c2n1 | – | inactive: -8.27%
14 | Cc1cc(-c2n[nH]c(=S)n2/N=C/C(Cl)=C/c2ccccc2)n[nH]1 | active: 14.6 µM | –
15 | O=C(NCC1CCCO1)/C(=C/c1ccc(Cl)cc1)NC(=O)c1ccccc1 (stereo unspecified) | – | inactive: -17.3%
16 | Cc1ccc([N+](=O)[O-])cc1NC(=O)CCSc1ccc(Cl)cc1 | – | inactive: -15.5%
17 | Cc1cccc(C(C)C)c1NC(=O)c1ccc(COc2ccc3c(C)cc(=O)oc3c2)cc1 | inconclusive: 29.1 µM [inhibitor, single point] | –
18 | COc1ccc(NC(=O)c2cc(-c3ccc(OC)c(OC)c3)nc3ccccc23)c(OC)c1 | active: 29.1 µM | –
19 | Cc1nc2ccc(NC(=O)COc3ccccc3[N+](=O)[O-])cc2s1 | – | inactive: -6.62%
20 | COc1ccc(C(=O)Oc2c(OC)cc(C(=S)N3CCOCC3)cc2OC)cc1OC | – | inactive: -23.5%
21 | COc1ccccc1CNc1ccnc(-c2ccccc2OC)n1 | inconclusive: 18.4 µM [inhibitor, single point] | –
22 | COc1cccc(NC2=CC(c3ccc(C(C)C)cc3)N(c3cccc(OC)c3)C2=O)c1 (stereo unspecified) | inconclusive: 29.1 µM [inhibitor, single point] | –
23 | Cc1c(Cl)cccc1-n1nnc(-c2nc(-c3ccc4c(c3)OCO4)no2)c1C | active: 23.1 µM | –

Row | SMILES | Potency | activity change, negative = growth inhibition
24 | COc1ccc(-c2nnc(SCC(=O)NC3CCCCC3)o2)cc1 | inconclusive: 25.9 µM [inhibitor, partial curve, poor fit] | –
25 | COc1ccc(-c2cc(C(=O)Nc3ccc(NC(C)=O)cc3)[nH]n2)c(C)c1 | inconclusive: 29.1 µM [inhibitor, single point] | –
26 | CC(=O)C[C@H]1c2cc(C(F)(F)F)ccc2S(=O)(=O)N1Cc1ccccc1 | inconclusive: 35.5 µM [inhibitor, single point] | –
27 | C=CCN(C)NC(=S)Nc1ccccc1 | – | inactive: 9.48%
28 | Cc1c(C(=O)N(Cc2cccc(Cl)c2)Cc2ccco2)oc2ccccc12 | inconclusive: 18.4 µM [inhibitor, single point] | –
29 | COc1ccc(C)cc1NS(=O)(=O)c1cc(Br)cc2c1N(C(C)=O)C(C)C2 (stereo unspecified) | inconclusive: 23.1 µM [inhibitor, single point] | –
30 | CC(C)c1ccc(NC2CCCN(C(=O)c3ccco3)C2)cc1 (stereo unspecified) | inconclusive: 16.4 µM [inhibitor, partial curve] | –
31 | CCn1c2ccc(C)cc2c2nnc(SCCN3CCCCC3)nc21 | inconclusive: 29.1 µM [inhibitor, single point] | –
32 | O[C@@H]1C[C@H](c2ccccc2)N(CC2CCCCC2)C[C@H]1n1cc(C2CC2)nn1 | – | inactive: -3.63%
33 | CCCCn1nnnc1C(c1ccnc2ccccc12)N1CCN(C/C=C/c2ccccc2)CC1 (stereo unspecified) | active: 20.6 µM | –
34 | O=C(NCc1cccnc1)[C@@H]1CC=C[C@@H]2CCN(Cc3ccc(Cl)c(Cl)c3)C(=O)[C@@H]21 | inconclusive: 35.5 µM [inhibitor, single point] and inconclusive: 18.4 µM [inhibitor, single point] | –
35 | CCN(c1ccccc1)S(=O)(=O)c1cc(C(=O)OC2CCOC2=O)ccc1C (stereo unspecified) | – | inactive: -7.28%
36 | CC1CCN(CCCNC(=O)Cn2ncc3c([nH]c4ccccc43)c2=O)CC1 | – | inactive: -2.83%
37 | CC(C)COc1ccc(C(=O)N(Cc2cccc(F)c2)C2CCS(=O)(=O)C2)cc1 (stereo unspecified) | active: 20.6 µM | –
38 | Cc1ccccc1C(=O)Nc1ccc(C(=O)N2CCCC(O)c3cc(Cl)ccc32)c(C)c1 (stereo unspecified) | inconclusive: 21.1 µM [inhibitor, single point] | –
39 | CCOc1ccc(S(=O)(=O)NCc2cccn2Cc2cccc(C)c2)cc1 | inconclusive: 23.1 µM [inhibitor, single point] | –
40 | COc1cc(-c2nnc(NC(=O)C3=COCCO3)o2)cc(OC)c1OC | – | inactive: -0.0683%
41 | COc1ccc(C(=O)NCCC2=CCCCC2)cc1S(=O)(=O)N1CCOCC1 | – | inactive: -0.177%
42 | CCOC(=O)c1cc(-c2ccccc2)n(-c2cccc(C(=O)NC(C)(C)C)c2)c1C | inconclusive: 29.1 µM [inhibitor, single point] | –
43 | COc1ccc(C2c3c(oc4ccccc4c3=O)C(=O)N2c2ccccn2)cc1 (stereo unspecified) | inconclusive: 32.6 µM [inhibitor, partial curve] | –
44 | CCN(CC)S(=O)(=O)c1cc(NC(=S)NC(=O)C2CCCC2)ccc1C | active: 23.1 µM | –
45 | CCCn1c(=N)c(C(=O)NC2CCCCC2)cc2c(=O)n3cc(C)ccc3nc21 | – | inactive: -0.223%
46 | CC(C)N1CCC(C)(C(=O)Nc2cc(-c3ccccc3)nn2C)C1 (stereo unspecified) | – | inactive: -19.3%

Reference: PubChem BioAssay AID686979 (National Center for Advancing Translational Sciences (NCATS), 2013)
